Assay results published in the supplement of paper PMC4967469.
Lines with a small IC50 respond at low doses; a limit (>, <) means that the fit lies beyond the doses tested. AUC is the area under the same curve over the 256-fold range up to the top dose, as a fraction; the more sensitive the line, the further below 1. The top dose, if marked as inferred, is not printed in the source and was worked back from the curve model.

Compound: Cc1ccc(-c2c(C(=O)CF)n(CCCO)c3ncnc(N)c23)cc1 [FMK]
Experiment: Viability of human cancer cell lines after 72 h of drug (GDSC screen)
Settings: top dose inferred
Experimental: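 Human cancer cell lines in 384-well plates, medium with 10% serum, drug for 72 h over a 256-fold dose range (nine 2-fold or five 4-fold steps up to the top dose). Adherent lines were fixed and stained with the nucleic acid dye Syto60, suspension lines read with resazurin; signal relative to control wells, capped at 0 and 100%. One two-parameter sigmoid per drug and line, fitted in a mixed model over all curves with the slope shared within a line.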

Cell Line	AUC	IC50 [µM]
NCI-H1568 (lung adenocarcinoma, adherent, top dose 20 µM)	0.963	> 20
NCI-H1573 (lung adenocarcinoma, adherent, top dose 20 µM)	0.988	> 20
NCI-H1581 (large cell lung carcinoma, semi-adherent, top dose 20 µM)	0.988	> 20
NCI-H1623 (lung adenocarcinoma, adherent, top dose 20 µM)	0.985	> 20
NCI-H1648 (lung adenocarcinoma, adherent, top dose 20 µM)	0.977	> 20
NCI-H1651 (lung adenocarcinoma, adherent, top dose 20 µM)	0.987	> 20
NCI-H1666 (lung adenocarcinoma, semi-adherent, top dose 20 µM)	0.979	> 20
NCI-H1688 (small cell lung carcinoma, adherent, top dose 20 µM)	0.987	> 20
NCI-H1693 (lung adenocarcinoma, adherent, top dose 20 µM)	0.962	> 20
NCI-H1694 (small cell lung carcinoma, suspension, top dose 20 µM)	0.953	> 20
NCI-H1703 (lung adenocarcinoma, adherent, top dose 20 µM)	0.972	> 20
NCI-H1734 (lung adenocarcinoma, adherent, top dose 20 µM)	0.964	> 20
NCI-H1755 (lung adenocarcinoma, adherent, top dose 20 µM)	0.957	> 20
NCI-H1770 (non-small cell lung carcinoma, suspension, top dose 20 µM)	0.992	> 20
NCI-H1781 (lung adenocarcinoma, adherent, top dose 20 µM)	0.963	> 20
NCI-H1792 (lung adenocarcinoma, adherent, top dose 20 µM)	0.925	> 20
NCI-H1793 (lung adenocarcinoma, adherent, top dose 20 µM)	0.982	> 20
NCI-H1836 (small cell lung carcinoma, suspension, top dose 20 µM)	0.945	> 20
NCI-H1838 (lung adenocarcinoma, adherent, top dose 20 µM)	0.965	> 20
NCI-H1869 (lung squamous cell carcinoma, adherent, top dose 20 µM)	0.967	> 20
NCI-H1876 (small cell lung carcinoma, adherent, top dose 20 µM)	0.98	> 20
NCI-H1915 (large cell lung carcinoma, adherent, top dose 20 µM)	0.964	> 20
NCI-H1944 (lung adenocarcinoma, adherent, top dose 20 µM)	0.925	> 20
NCI-H1975 (lung adenocarcinoma, adherent, top dose 20 µM)	0.95	> 20
NCI-H1993 (lung adenocarcinoma, adherent, top dose 20 µM)	0.977	> 20

Cell Line	AUC	IC50 [µM]
NCI-H2009 (lung adenocarcinoma, adherent, top dose 20 µM)	0.987	> 20
NCI-H2023 (lung adenocarcinoma, adherent, top dose 20 µM)	0.969	> 20
NCI-H2029 (small cell lung carcinoma, adherent, top dose 20 µM)	0.992	> 20
NCI-H2030 (lung adenocarcinoma, adherent, top dose 20 µM)	0.955	> 20
NCI-H2081 (small cell lung carcinoma, suspension, top dose 20 µM)	0.977	> 20
NCI-H2085 (lung adenocarcinoma, adherent, top dose 20 µM)	0.979	> 20
NCI-H2087 (lung adenocarcinoma, semi-adherent, top dose 20 µM)	0.651	3.39
NCI-H2110 (non-small cell lung carcinoma, adherent, top dose 20 µM)	0.979	> 20
NCI-H2122 (lung adenocarcinoma, adherent, top dose 20 µM)	0.981	> 20
NCI-H2141 (small cell lung carcinoma, suspension, top dose 20 µM)	0.988	> 20
NCI-H2170 (lung squamous cell carcinoma, adherent, top dose 20 µM)	0.987	> 20
NCI-H2171 (small cell lung carcinoma, suspension, top dose 20 µM)	0.973	> 20
NCI-H2172 (non-small cell lung carcinoma, adherent, top dose 20 µM)	0.978	> 20
NCI-H2196 (small cell lung carcinoma, adherent, top dose 20 µM)	0.987	> 20
NCI-H2228 (lung adenocarcinoma, adherent, top dose 20 µM)	0.96	> 20
NCI-H2291 (lung adenocarcinoma, adherent, top dose 20 µM)	0.977	> 20
NCI-H2342 (lung adenocarcinoma, adherent, top dose 20 µM)	0.978	> 20
NCI-H2347 (lung adenocarcinoma, adherent, top dose 20 µM)	0.966	> 20
NCI-H2405 (lung adenocarcinoma, adherent, top dose 20 µM)	0.974	> 20
NCI-H2444 (non-small cell lung carcinoma, adherent, top dose 20 µM)	0.984	> 20
NCI-H2452 (mesothelioma, adherent, top dose 20 µM)	0.978	> 20
NCI-H3122 (lung adenocarcinoma, adherent, top dose 20 µM)	0.987	> 20
NCI-SNU-1 (stomach, suspension, top dose 20 µM)	0.925	> 20
NCI-SNU-5 (stomach, suspension, top dose 20 µM)	0.989	> 20
NCI-SNU-16 (stomach, suspension, top dose 20 µM)	0.991	> 20

Cell Line	AUC	IC50 [µM]
NK-92MI (lymphoid neoplasm, suspension, top dose 20 µM)	0.986	> 20
NKM-1 (acute myeloid leukaemia, suspension, top dose 20 µM)	0.976	> 20
NMC-G1 (glioma, adherent, top dose 20 µM)	0.945	> 20
NOMO-1 (acute myeloid leukaemia, suspension, top dose 20 µM)	0.905	> 20
NOS-1 (osteosarcoma, adherent, top dose 20 µM)	0.919	> 20
NTERA-2 cl.D1 (testis, adherent, top dose 20 µM)	0.977	> 20
NU-DUL-1 (B-cell lymphoma, suspension, top dose 20 µM)	0.974	> 20
NUGC-3 (stomach, adherent, top dose 20 µM)	0.979	> 20
NY (osteosarcoma, adherent, top dose 20 µM)	0.988	> 20
OAW-28 (ovary, adherent, top dose 20 µM)	0.98	> 20
OAW-42 (ovary, adherent, top dose 20 µM)	0.967	> 20
OC-314 (ovary, adherent, top dose 20 µM)	0.955	> 20
OCI-AML2 (acute myeloid leukaemia, suspension, top dose 20 µM)	0.967	> 20
OCI-AML3 (acute myeloid leukaemia, suspension, top dose 20 µM)	0.875	14.9
OCI-AML5 (acute myeloid leukaemia, suspension, top dose 20 µM)	0.987	> 20
OCI-LY-19 (B-cell lymphoma, suspension, top dose 20 µM)	0.958	> 20
OCI-M1 (acute myeloid leukaemia, suspension, top dose 20 µM)	0.966	> 20
OCUB-M (breast, adherent, top dose 20 µM)	0.972	> 20
OCUM-1 (stomach, adherent, top dose 20 µM)	0.987	> 20
OE21 (oesophagus, adherent, top dose 20 µM)	0.966	> 20
OE33 (oesophagus, adherent, top dose 20 µM)	0.967	> 20
OMC-1 (cervix, adherent, top dose 20 µM)	0.985	> 20
ONS-76 (medulloblastoma, adherent, top dose 20 µM)	0.957	> 20
OPM-2 (myeloma, suspension, top dose 20 µM)	0.958	> 20
OS-RC-2 (kidney, adherent, top dose 20 µM)	0.965	> 20
